The labels stand for the following.
B1: CPEB3 Ribozyme (parent)
chain: UAACAGGGGGCCACAGCAGAAGCGUUCACGUCGCAGCCCCUGUCAGAUUCUGGUGAAUCUGCGAAUUCUGCUGUAUAUCUC

The source gives no read counts; variants with many changes may rest on few reads.

In the data set the parent is B1. Kind of data set: self-cleavage, relative activity (ratio to wild type); higher = more cleavage; in vitro, sequencing. Put shortly: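 After error-prone PCR and barcoding, CPEB3 ribozyme mutant libraries were transcribed with T7 RNA polymerase at 37°C for 5 hours, then given 15 min with DNase I before an EDTA stop, and they cleaved during both steps. Reverse transcription with template switching preceded Illumina sequencing. Relative activity divides a variant's cleaved/total read fraction by the unmutated ribozyme's. At least 5 reads were required per variant, and three batches were averaged.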
In the case of A15G U51C A64U U69C, the self-cleavage was determined as 0.33.
Take A15G U54C A75U U78C: the self-cleavage turned out to be 0.76.
The result for A15G U48A U76A reads 0.25; that for A15U A18U A64G, 0.15.
Take A15U A18U A64U: the self-cleavage came to 0.11.
The result for A15G U43C U66C reads 0.15; that for A15U A18C A28G U41C U66C U76C U80A, 0.18.
The result for A15G U51C A77U reads 0.64.
The result for A15G U69A U78C reads 0.34.
For the variant A15G U60C U72G, the self-cleavage was determined as 0.18.
As for A15U A18U C40U, the figure is 0.33.
A15U A18C U80C: the self-cleavage stood at 0.35.
As for A15G U49C U51A C59U U72C, the figure is 0.33; as for A15U A18U U25C U26A U72A G73A U76C, 0.06; as for A15G U43G C62U A65G G73U, 0.13.
The result for A15U A18G A65G A77G reads 0.08; that for A15U A18C U69C, 0.19; that for A15G U54A A56U A65G U72A, 0.26.
As for A15U A18G U41C A57G U72C, the figure is 0.59; as for A15G U51G A56G, 0.68; as for A15G U54C A57G, 0.57.
Consider A15U A18U U41C U60C G61U C81A, for which the self-cleavage is 0.16.
With A15U A20G A21G U48C U72C, the self-cleavage was determined as 0.09.
A15U A20G A21G U49C: the self-cleavage turned out to be 0.28.
As for A15G U60C A75G, the figure is 0.26; as for A15U A18U U72G U74C A75U, 0.07; as for A15U A18U A65G U66C, 0.16.
The result for A15G U66C U80C reads 0.31.
With A15G U54A U66C, the self-cleavage is 0.41.
The result for A15G U51A A57G U69C U72A reads 0.24; that for A15G U48C U72C, 0.98.
As for A15U A18U A20C U51C U74C U78C, the self-cleavage turned out to be 0.17.
As for A15G U54C U74C, the figure is 1.23; as for A15G U54A A56U, 0.31.
The result for A15G U60C U66A reads 0.22; that for A15G U54C C59A A64U U80C, 0.17; that for A15U A18G U26C A28G A45U U72C, 0.08.
As for A15G U69C U74C, the figure is 0.3; as for A15U A18G U48C C71U, 0.1; as for A15G U67A U76C, 0.48.
For A15G U49C U51A U58A U66C U78A, the self-cleavage was found to be 0.09.
As for A15U A20G A21G A28G U31A A45U U49C, the figure is 0.28; as for A15G U48C A57G A64U, 0.17; as for A15G U48C A57G A64G U74C, 1.28.
As for A15G U43C U54C U58C U72C, the figure is 0.21.
On to A15U A18G U58C U72G U74C, for which the self-cleavage worked out at 0.07.
As for A15G U67C U80A, the figure is 0.46.
For A15G U51A A64G, the self-cleavage worked out at 0.75.
As for A15U A18C U43C, the self-cleavage worked out at 0.21.
The result for A15U A18G A45G U69C U78C reads 0.73; that for A15G U60A U76A, 0.13; that for A15U A18U U60C U78C U80C, 0.12.
The result for A15G U51A U58G U66C U78A reads 0.2; that for A15U A18U C38U G53A, 0.1.
A15G U48G U54G: the self-cleavage came to 0.25.
Turning to A15U A18G U25A C32U U48C A56G U60C, the self-cleavage was determined as 0.05.
For the variant A15U A18U U43C A45G, the self-cleavage stood at 0.22.
For the variant A15U A18U U41C A65U, the self-cleavage came to 0.14.
As for A15G U58C U80A, the figure is 0.35; as for A15G U54C U69C, 0.23; as for A15U A18G A35U U54C G61C U72C, 0.07.
As to A15G U66G U69C, the self-cleavage came to 0.25.
The result for A15G U48C U66C C68G A77G reads 0.13.
The result for A15G U48C A75G U76C reads 0.34; that for A15G U43C U49C U78A, 0.06.
For the variant A15U A18G A28G, the self-cleavage turned out to be 0.
The result for A15U A18U C62U U74C U76C reads 0.13; that for A15U A18U U41C U67C, 0.13; that for A15U A18G U26C U51C A64G U76C, 0.02.
With A15U A18G U41A U54A A57G U78A, the self-cleavage amounted to 0.28.
With A15U A18U U48C C71A U74A A75U, the self-cleavage amounted to 0.08.
Take A15G U49C U60C A77U: the self-cleavage is 0.11.
As for A15U A18U A45G U74G A77U, the figure is 0.18; as for A15U A18G A20G C23U A45U A56G U80C, 0.06; as for A15G U58G U66C U72C, 0.06.
Take A15G U43C U54G A77U: the self-cleavage came to 0.5.
In the case of A15G U69C U72A, the self-cleavage was determined as 0.36.
A15G U54G A56C G63A U66C: the self-cleavage was found to be 0.19.
As for A15G U66C U76C, the figure is 0.37.
On to A15G U74C U80C, for which the self-cleavage turned out to be 1.29.
As to A15G U48C A65G U66C, the self-cleavage was found to be 0.26.
A15U A18G U31C U48A U78C U80A: the self-cleavage was 0.06.
As for A15U A18G A57G U60C U66C, the figure is 0.27.

(Values after the RNAGym collection of RNA variant scans (doi:10.1093/nar/gkz1192).)
